# Test results reported in publication PMC4336329 (PLoS ONE, 2015).
# About 14,000 (4.5%) of roughly 310,000 compounds showed an effect of 50% or more. The effect is printed as a negative number. The list shows a part of the results.
# Biological target: human ether-à-go-go-related gene (hERG) potassium channel (human, UniProt Q12809)
# Test: primary screen, population patch clamp on CHO cells stably expressing hERG
# 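Note: peak tail current of the secondary pulse compared with the same well before compound.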
# Sequence of human ether-à-go-go-related gene (hERG) potassium channel (Q12809 whole entry, looked up): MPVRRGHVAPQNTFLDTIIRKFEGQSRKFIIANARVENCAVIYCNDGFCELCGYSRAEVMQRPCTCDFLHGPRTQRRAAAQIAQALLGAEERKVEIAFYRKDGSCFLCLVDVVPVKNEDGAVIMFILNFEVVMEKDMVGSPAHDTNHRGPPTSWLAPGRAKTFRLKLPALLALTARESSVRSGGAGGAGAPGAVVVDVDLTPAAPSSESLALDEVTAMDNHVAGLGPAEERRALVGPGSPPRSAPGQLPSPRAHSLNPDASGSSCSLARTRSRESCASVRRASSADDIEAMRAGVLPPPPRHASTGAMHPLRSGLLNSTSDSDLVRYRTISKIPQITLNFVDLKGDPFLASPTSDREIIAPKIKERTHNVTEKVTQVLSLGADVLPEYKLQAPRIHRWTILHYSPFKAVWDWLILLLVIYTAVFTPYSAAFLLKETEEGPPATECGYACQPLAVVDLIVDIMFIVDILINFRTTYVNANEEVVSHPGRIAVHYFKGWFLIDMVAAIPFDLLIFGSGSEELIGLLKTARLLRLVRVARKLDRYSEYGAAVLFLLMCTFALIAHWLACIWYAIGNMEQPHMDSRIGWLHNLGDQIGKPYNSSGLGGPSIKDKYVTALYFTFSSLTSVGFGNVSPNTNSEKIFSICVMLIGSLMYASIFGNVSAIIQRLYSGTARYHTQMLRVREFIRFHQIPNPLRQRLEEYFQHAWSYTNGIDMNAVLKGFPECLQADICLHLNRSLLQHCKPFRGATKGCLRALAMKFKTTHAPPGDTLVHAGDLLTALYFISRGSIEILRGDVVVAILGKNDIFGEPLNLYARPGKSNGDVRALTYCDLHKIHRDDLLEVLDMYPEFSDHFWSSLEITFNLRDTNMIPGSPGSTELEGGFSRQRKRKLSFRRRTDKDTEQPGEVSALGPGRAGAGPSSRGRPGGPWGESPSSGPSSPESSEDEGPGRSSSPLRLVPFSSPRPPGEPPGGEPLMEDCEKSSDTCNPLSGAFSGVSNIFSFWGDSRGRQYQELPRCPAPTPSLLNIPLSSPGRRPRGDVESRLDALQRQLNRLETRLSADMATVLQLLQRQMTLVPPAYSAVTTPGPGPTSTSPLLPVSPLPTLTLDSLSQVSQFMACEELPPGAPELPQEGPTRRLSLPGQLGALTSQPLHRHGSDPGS
row,SMILES,"hERG current change (%, negative = inhibition) at 10uM"
1,CCO.Cc1cc(C)c2nc(NC(=O)c3cccc(S(=O)(=O)N4CCc5ccccc54)c3)sc2c1,7.89%
2,CCN(CC)S(=O)(=O)c1ccc(C)c(NC(=O)COC(=O)CNC(=O)c2ccc(C(C)(C)C)cc2)c1,7.12%
3,CC(=O)c1c(C)nc2ccc(Br)cc2c1C(=O)O,19.1%
4,Cc1cc(=O)oc2cc(OC(C)C)ccc12,3.81%
5,CCN(CC)S(=O)(=O)c1ccc(N/N=C/c2cc(OC)ccc2O)nc1,7.4%
6,CC(Sc1ncnc2c1cnn2-c1ccccc1)C(=O)NCC1CCCO1 (stereo not drawn),0.0302%
7,COCCNC(=O)Cn1ccc2cc(S(=O)(=O)N3CCCCCC3)ccc21,-0.742%
8,CCc1nnc(NC(=O)c2cc3c(s2)CCCCC3)s1,46%
9,CCC(=O)c1c[nH]c(C(=O)NCCCn2ccnc2)c1,9.18%
10,Cc1cc(C)cc(NC(=O)c2cccn2-c2ncc(C(F)(F)F)cc2Cl)c1,-6.07%
11,Cc1ccc(S(=O)(=O)Oc2cccc(/C=N/n3cnnc3)c2)cc1,-49%
12,CC(=O)N1CCn2c3c(c(=O)c4cc(C)ccc42)CCC31 (stereo not drawn),-19.4%
13,Cc1cc(-c2[nH]nc3c2C(c2cccc(O)c2)C(C#N)=C(N)O3)c(C)s1 (stereo not drawn),-9.13%
14,O=C(C1CC(c2ccccc2O)=NO1)N1CCC2(CC1)OCCO2 (stereo not drawn),8.58%
15,Cc1ccc(SCC(=O)Nc2cccc(NC(=O)c3ccco3)c2)cc1,-6.29%
16,COc1cc(NC(=O)c2cc3c(=O)n(C)c4ccccc4c3n2C)cc(OC)c1OC,18.2%
17,COCCn1c(SCC(=O)NC2(C#N)CCCCC2)nc2ccccc2c1=O,-49%
18,O=C1CCCC2=C1C(c1ccccc1)CC(=O)N2c1ccc(F)cc1F (stereo not drawn),-5.22%
19,Cn1c(=O)oc2cc(S(=O)(=O)NCc3ccccc3)ccc21,1.38%
20,CN(CC(=O)NCCCc1ccccc1)Cc1ccc(Br)cc1,-13.9%
21,COc1ccc(C)cc1NC(=O)C(OC(=O)c1cc(C)oc1C)c1ccccc1 (stereo not drawn),2.99%
22,CCOc1ccccc1NC(=O)N1CCc2ccccc2C1,7.67%
23,CC(=O)Nc1nn(C)c2nc3cc(C)ccc3cc12,4.11%

row,SMILES,"hERG current change (%, negative = inhibition) at 10uM"
1,O=C1Oc2ccccc2C(=O)/C1=C/c1ccccc1O,10.6%
2,Cc1ccc(C(=O)N2CCN(c3ccccn3)CC2)cc1[N+](=O)[O-],9.02%
3,Cc1ccc(C2Nc3cccc4cccc(c34)N2)s1,-4.53%
4,COCc1cc(C)nc(N2CCCCC2)c1C#N,10.5%
5,Cc1ccc(NC(=O)c2ccccc2Cl)c(Cl)c1,-6.84%
6,COc1ccc(NC(=O)/C(C#N)=C/c2ccc(OCCN3CCOCC3)c(OC)c2)c(OC)c1,11.3%
7,CCC(=O)N1C(Cc2ccccc2)COC1(C)C (stereo not drawn),-73.4%
8,Cn1c(N)cc(=O)n(Cc2ccccc2)c1=O,6.48%
9,COc1ccc(OC)c2sc(N3CCN(C(=O)c4ccc([N+](=O)[O-])s4)CC3)nc12,-41.9%
10,O=C(O)C(=O)O.c1csc(-c2nnc(N3CCCCCC3)c3ccccc23)c1,-20.9%
11,O=C(CN1CCOCC1)Nc1ccccc1C(=O)Nc1ccccc1,10.4%
12,CCOC(=O)c1sc(NC(=O)CSc2nc(-c3ccco3)cc(C(F)(F)F)n2)c(C(=O)OC)c1C,7.16%
13,COc1cc(C)c(Cl)c(C)c1S(=O)(=O)NC1CC(C)(C)NC(C)(C)C1,7.91%
14,Cc1ccccc1OCc1occc1C(=O)Nc1cccc(-n2cnnn2)c1,-7.36%
15,O=C(COC(=O)C1CCN(c2ccc(C(F)(F)F)cn2)CC1)NCc1ccc(F)cc1,-27%
16,COC(=O)CCCC(=O)Nc1ccc(Br)cc1,8.16%
17,OCC1CCCCN1C(=S)NCc1ccco1 (stereo not drawn),-2.65%
18,Cn1c(=O)[nH]c(=O)c2c1nc(N1CCN(Cc3ccccc3)CC1)n2CCSc1ncccn1,-25.7%
19,Cc1ccc(NC(=S)NCCSc2ccc(Cl)cc2)c(C)c1,4.92%
20,O=C(NN1C(=O)c2ccccc2NC1c1ccccn1)c1ccc(Br)cc1 (stereo not drawn),-42.6%
21,CCn1cc(CN2CCC(n3nccc3NC(=O)Cc3ccccc3)CC2)c(C)n1,-0.831%
22,NC(=O)COc1ccc(NC(=O)CC23CC4CC(CC(C4)C2)C3)cc1,6.92%
23,Cc1csc(NC(CO)c2nc3ccccc3n2CCOCCO)n1 (stereo not drawn),11.1%

row,SMILES,"hERG current change (%, negative = inhibition) at 10uM"
1,Cn1cc(Br)c(C(=O)NC2C3CC4CC(C3)CC2C4)n1 (stereo not drawn),-22.1%
2,O=C(COc1ccc(Cl)cc1Cl)Nc1ccc(CN2CCCCC2)cc1,-67.9%
3,CSc1cccc(NC(=O)CCc2ccccc2)c1,9.54%
4,CC(=O)N(Cc1c(C#N)c2ccccc2n1C)c1ccccc1,-3.78%
5,COc1ccccc1C(=O)CC(=O)C(=O)Nc1cccc([N+](=O)[O-])c1C,8.79%
6,O=C(NCCCCCCNC(=O)c1ccccc1O)c1ccccc1O,14.8%
7,CCOc1nc(NC(=O)NC(=O)c2ccccc2)nc(-c2ccccc2)n1,-2.07%
8,CC(C)c1ccc(C(=O)NN2CCOCC2)cc1,-1.79%
9,CCCn1c(=O)c2sccc2n2c(CCCC(=O)NCC3CCCO3)nnc12 (stereo not drawn),14.1%
10,CC(C)(C)C(=O)N1c2ccccc2CCc2ccccc21,-0.0543%
11,Cl.Clc1cccc(CN2C3=NCCCN3c3ccccc32)c1,-75.4%
12,Cc1ccc(C)c(/C=N/NC(=S)NC(C)C)c1,30.3%
13,Cc1ccc(OCCSc2nc3ccccc3n2CCC(=O)O)cc1,9.74%
14,Cc1[nH]c2ccccc2c1CCN,8.43%
15,CC(=O)Nc1ccc(OCCOc2ccc(NC(C)=O)cc2)cc1,19.3%
16,COc1ccc(-c2ccccc2)cc1NC(=O)c1ccncc1,-13.7%
17,COc1ccc2c(c1)c1ncn(Cc3ccc(F)cc3)c(=O)c1n2C,20.8%
18,CCCN1C(=O)/C(=c2\s/c(=C3\C=Cc4ccccc4N3CC)c(=O)n2-c2ccccc2)SC1=S,8.95%
19,Cc1nc2sc(-c3ccccc3)cc2c(=O)n1/N=C/N(C)C,-0.737%
20,Cc1ccc(Cl)cc1NC(=O)COC(=O)c1ccc(COc2ccc3c(C)cc(=O)oc3c2)cc1,8.58%
21,COc1ccc(/C(C)=C2\SC(=S)N(CCC(=O)O)C2=O)cc1,7.7%
22,CCOc1cc(C2C3=C(CC(C)(C)CC3=O)OC3=C2C(=O)CC(C)(C)C3)cc([N+](=O)[O-])c1O,-11.9%
23,CCOC(=O)c1cc2c(cn1)[nH]c1ccccc12,-3.84%

row,SMILES,"hERG current change (%, negative = inhibition) at 10uM"
1,COc1ccccc1/C=C/c1nc2ccc(OC(C)=O)cc2c(=O)o1,11.9%
2,COc1ccc(S(=O)(=O)c2c(O)c3ccc(C(=O)Nc4ccccc4Cl)cc3[nH]c2=O)cc1,5.81%
3,C=CCn1c(SCc2nc3ccccc3[nH]2)nnc1-c1cccc(OC)c1,-12.2%
4,CCOC(=O)c1ccc(NC(=O)c2nc(SC)ncc2Cl)cc1,12.6%
5,Cc1cc(NC(=O)c2ccccc2F)nc2c1c(=O)oc1ccccc12,15.1%
6,CCOc1ccc(C(F)(F)F)cc1NC(=O)COc1ccc(C(F)(F)F)cc1[N+](=O)[O-],21.5%
7,NC(=NCCc1ccc(Cl)cc1)NS(=O)(=O)c1ccc(F)cc1,6.7%
8,Cc1cc(C)n2cc(CSc3nnc(-c4ccccc4)o3)nc2n1,-38.3%
9,CCN(CC)C(=O)C1CCCN(Cc2nc(-c3cccs3)no2)C1 (stereo not drawn),0.945%
10,Cc1cc(=O)oc2c(C)c(OC3CCCCC3=O)ccc12 (stereo not drawn),13.8%
11,CC(C)CCNC(=O)CCCc1ccccc1,14.5%
12,COc1ccc(F)cc1C(=O)C1CCCN(Cc2ccc(Oc3ncccn3)cc2)C1 (stereo not drawn),-64.2%
13,O=C(NNc1cccc(Cl)n1)Nc1ccccc1Cl,20.9%
14,CC(=O)n1nc(-c2cccnc2)nc1NCc1cccs1,-8.03%
15,O=C(N/N=C/c1ccc([N+](=O)[O-])o1)c1cc(-c2cccc(Br)c2)nc2ccccc12,4.18%
16,N#Cc1c(-c2ccccc2)[nH]c(=S)[nH]c1=O,17.1%
17,CC(C)CSc1ncc(-c2cccc(C(F)(F)F)c2)cn1,-7.1%
18,Cc1ccc(N)c(C(=O)c2ccccc2)c1,-18.7%
19,COc1ccc2cc(C(=O)Nc3ccc(Cl)cc3)sc(=O)c2c1OC,7.97%
20,Cc1nc2c(C)cccc2cc1C(=O)N/N=C/c1ccc(C(=O)O)cc1,26.1%
21,CCC(CC)NC(=O)c1ccc2nc[nH]c2c1,4.63%
